Experimental data from PubChem BioAssay AID1477 (National Center for Advancing Translational Sciences (NCATS), 2009).
Screen size: about 230,000 compounds; fewer than 10 were called active. Inconclusive means that the source gave no clear call. Such entries were picked first, then a sample of the others. The call rests on the fitted dose curve; in most records, active means well fitted curve in the direction sought with a large enough effect; inconclusive means small, poorly fitted or top-dose-only effect, or effect the other way, or another doubt; inactive means no such curve, though single readings can be large or run the other way. Potencies of inconclusive entries are left out as doubtful fits.

Target: Runt-related transcription factor 1 (Homo sapiens) + Core-binding factor subunit beta (Homo sapiens) (UniProt Q01196+Q13951)
Chain of UniProt Q01196 (Q01196 whole entry, looked up): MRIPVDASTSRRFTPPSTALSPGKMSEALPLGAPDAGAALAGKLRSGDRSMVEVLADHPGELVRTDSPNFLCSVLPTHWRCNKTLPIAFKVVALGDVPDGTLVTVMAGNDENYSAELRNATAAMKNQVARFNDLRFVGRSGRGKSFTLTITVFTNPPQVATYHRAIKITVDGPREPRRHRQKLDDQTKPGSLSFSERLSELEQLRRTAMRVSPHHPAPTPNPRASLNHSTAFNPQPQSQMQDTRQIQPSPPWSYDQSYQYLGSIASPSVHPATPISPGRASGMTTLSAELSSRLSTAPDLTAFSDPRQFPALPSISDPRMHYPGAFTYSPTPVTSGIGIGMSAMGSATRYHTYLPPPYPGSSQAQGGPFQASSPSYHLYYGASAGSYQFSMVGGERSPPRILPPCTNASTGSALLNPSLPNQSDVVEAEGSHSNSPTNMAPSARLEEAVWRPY
Chain of UniProt Q01196 (Q13951 whole entry, looked up): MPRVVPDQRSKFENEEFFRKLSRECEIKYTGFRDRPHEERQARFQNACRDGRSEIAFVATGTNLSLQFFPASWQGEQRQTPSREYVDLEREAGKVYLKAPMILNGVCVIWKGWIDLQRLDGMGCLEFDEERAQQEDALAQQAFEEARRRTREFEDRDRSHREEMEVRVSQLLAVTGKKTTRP
Assay: qHTS Assay for Compounds Blocking the Interaction Between CBF-beta and RUNX1 for the Treatment of Acute Myeloid Leukemia
Conditions: AlphaScreen CBFb-His/RUNX1-biotin binding, biochemical; series mostly up to 59.8 µM
How it was run: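 Inhibition was taken as any reduction in AlphaScreen signal from the CBF-beta–RUNX1 pair (His and biotin tags, 30 nM each), measured after compound (15 min) and bead (90 min) incubations at room temperature.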

Structure (SMILES) | Potency
CC(=O)CCc1ccc(OCCCCN2CCC(Cc3ccccc3)CC2)cc1 | inactive
O=c1cc(CN2CCN(CCO)CC2)c2cc3c(cc2o1)CCC3 | inactive
O=C1C2C(C(=O)N1/N=C/c1cc([N+](=O)[O-])c(O)cc1O)C1C=CC2C12CC2 (stereo unspecified) | inconclusive [inhibitor, single point]
Cc1cc2nc(C(F)(F)F)cc(-c3cccs3)n2n1 | inconclusive [activator, single point]
N[C@H](C(=O)O)c1ccc(O)c(C(=O)O)c1 | inconclusive [inhibitor, single point]
O=[N+]([O-])c1ccc(N/N=C/c2c[nH]c3ccccc23)c(S(=O)(=O)Nc2ccc(Cl)cc2)c1 | inactive
O=C(NC1CCS(=O)(=O)C1)c1ccc(-c2ccc(Br)cc2)o1 (stereo unspecified) | inactive
CC[C@H]1C(c2ccc(F)cc2)=NN(c2ccccc2)[C@@H]1CO | inconclusive [activator, partial curve]
CCN1CCCC1CN(Cc1cc2ccc(C)c(C)c2[nH]c1=O)C(=O)Nc1ccccc1OC (stereo unspecified) | inactive
CCOC(=O)C1CCCN(c2c(Nc3ccc(C)c(C)c3)c(=O)c2=O)C1 (stereo unspecified) | inactive
Nc1c(C(=O)OCc2ccccc2)c2nc3ccccc3nc2n1Cc1cccs1 | inconclusive [activator, single point]
CCOC(=O)Cc1c(C)c2ccc(N(CC)CC)cc2oc1=O | inconclusive [activator, single point]
CC(=O)c1ccc(N/N=C(/C(N)=O)C2=NC(C)(C)Cc3ccccc32)cc1 | inconclusive [inhibitor, single point]
Cc1[nH]n(-c2ccccc2)c(=O)c1/C=N/N(c1ccccc1)c1ccccc1 | inconclusive [inhibitor, single point]
Clc1cc(Cl)cc(C2=NCCC(c3ccccc3)O2)c1 (stereo unspecified) | inactive
Cc1cccc(-c2noc(CN(C(=O)c3ccc4c(c3)OCO4)C(C)C)n2)c1 | inactive
O=C(NNC(=O)c1cccs1)c1ccc([N+](=O)[O-])cc1 | inconclusive [activator, partial curve, poor fit]
Cc1cc(C)n2c(nc3ccccc32)c1C(=O)NCc1ccccc1 | inconclusive [activator, single point]
C=C1CCN(C(Cc2ccccc2)C(=O)NCc2ccc(Cl)c(Cl)c2)S(=O)(=O)c2ccccc21 (stereo unspecified) | inconclusive [activator, single point]
COc1ccc2cc(C(=O)NCc3ccco3)c(=O)oc2c1 | inactive
COc1ccc(-c2cnc[nH]2)cc1 | inconclusive [inhibitor, full curve, poor fit]
CCN(CC)c1ccc(N=Cc2ccc([N+](=O)[O-])o2)cc1 | inconclusive [inhibitor, single point]
O=C(O)c1c2c(nc3ccc(Cl)cc13)CCC2 | inconclusive [inhibitor, partial curve]

Structure (SMILES) | Potency
CCCN1CCN(C(=O)Cn2cnc3ccc(S(=O)(=O)N4CCC(C)CC4)cc3c2=O)CC1 | inactive
COc1cccc([C@@H]2Oc3ccc(Br)cc3C[C@H]2OC(=O)N[C@H]2CCCc3ccccc32)c1 | inconclusive [activator, partial curve]
O=C1NC(=O)N(c2ccccc2)C(=O)/C1=C/C=C/c1ccco1 | inactive
Cn1c(-c2ccccc2O)cc2ccccc21 | inconclusive [inhibitor, single point]
Cc1cc2cc(CNC(=O)C(C)Oc3ccccc3)ccc2n1C (stereo unspecified) | inconclusive [inhibitor, partial curve, poor fit]
CNC(=S)NNc1ccccc1[N+](=O)[O-] | inactive
Cc1nn(-c2ccccn2)c2c1C(=O)C(Br)CC2 (stereo unspecified) | inactive
O=C1OCCN1C(=O)[C@H]1[C@H](c2ccccc2)C(c2cccc(Cl)c2)=NN1c1ccccc1 | inconclusive [activator, partial curve]
NC(=NC1C2CC3CC(C2)CC1C3)Nc1ccc(I)cc1 (stereo unspecified) | inconclusive [activator, partial curve, poor fit]
COc1ccc(N(Cc2ccccc2)S(=O)(=O)c2ccc(C)cc2)cc1 | inconclusive [activator, single point]
Oc1ccc(N=Cc2ccc(O)c(O)c2)cc1 | inactive
COc1ccc(N2C(=O)CC(Sc3nnc(-c4ccccc4)o3)C2=O)cc1 (stereo unspecified) | inactive
O=C1OCCN1C(=O)[C@H]1[C@H](c2ccc(F)cc2)C(c2ccc(F)cc2)=NN1c1ccc(Br)cc1 | inconclusive [activator, partial curve]
O=c1cnnc(N/N=C/C2CC=CCC2)[nH]1 (stereo unspecified) | inconclusive [inhibitor, single point]
Cc1cc(/C=N/NC(N)=S)c(O)c(/C=N/NC(N)=S)c1 | inconclusive [inhibitor, partial curve]
NC(=O)c1ccc[n+](CC(=O)c2ccc(F)cc2)c1 | inactive
COC(=O)c1c(NC(=O)c2ccc(C)o2)sc2c1CCCCC2 | inconclusive [activator, single point]
COc1ccccc1NS(=O)(=O)c1ccc(NN=C2CCCCC2)c([N+](=O)[O-])c1 | inconclusive [inhibitor, partial curve]
Cc1cc(C)c(C)c(S(=O)(=O)NCc2ccc(C(=O)N3CCCCC3)cc2)c1C | inactive
N#Cc1c(NCCN)nc(NCc2ccccc2)c2c1CCN(Cc1ccccc1)C2 | inconclusive [inhibitor, single point]
CN(C)c1ccc(N2C(=O)CC(Nc3ccc(N4CCOCC4)cc3)C2=O)cc1 (stereo unspecified) | inconclusive [inhibitor, single point]
O=C1CCCC2=C1C(c1ccc(Cl)cc1)C1C(=O)c3ccccc3C1=N2 (stereo unspecified) | inconclusive [inhibitor, single point]
CCN(CC)S(=O)(=O)c1ccc(C)c(NC(=S)NNC(=O)C2CC2)c1 | inconclusive [inhibitor, single point]
